Test results reported in PubChem BioAssay AID504332 (National Center for Advancing Translational Sciences (NCATS), 2011).
Hit rate of the full screen: of about 350,000 compounds, about 31,000 (8.9%) were called active. Inconclusive means that the source gave no clear call. Such entries were picked first, then a sample of the others. The call rests on the fitted dose curve; in most records, active means well fitted inhibition curve with a large enough effect; inconclusive means small, poorly fitted or top-dose-only effect; inactive means no such curve, though single readings can be large or run the other way. Potencies beside an inconclusive call are fits to weak or partial responses and may not hold up.

What follows are molecules tested against Histone-lysine N-methyltransferase EHMT2 (Homo sapiens) (UniProt Q96KQ7) (assay: qHTS Assay for Inhibitors of Histone Lysine Methyltransferase G9a). Conditions: G9a H3K9 monomethylation, AlphaScreen, 2 h; activity, negative = inhibition: at 59 µM (top of the series) unless noted.
Chain of UniProt Q96KQ7 (Q96KQ7 whole entry, looked up): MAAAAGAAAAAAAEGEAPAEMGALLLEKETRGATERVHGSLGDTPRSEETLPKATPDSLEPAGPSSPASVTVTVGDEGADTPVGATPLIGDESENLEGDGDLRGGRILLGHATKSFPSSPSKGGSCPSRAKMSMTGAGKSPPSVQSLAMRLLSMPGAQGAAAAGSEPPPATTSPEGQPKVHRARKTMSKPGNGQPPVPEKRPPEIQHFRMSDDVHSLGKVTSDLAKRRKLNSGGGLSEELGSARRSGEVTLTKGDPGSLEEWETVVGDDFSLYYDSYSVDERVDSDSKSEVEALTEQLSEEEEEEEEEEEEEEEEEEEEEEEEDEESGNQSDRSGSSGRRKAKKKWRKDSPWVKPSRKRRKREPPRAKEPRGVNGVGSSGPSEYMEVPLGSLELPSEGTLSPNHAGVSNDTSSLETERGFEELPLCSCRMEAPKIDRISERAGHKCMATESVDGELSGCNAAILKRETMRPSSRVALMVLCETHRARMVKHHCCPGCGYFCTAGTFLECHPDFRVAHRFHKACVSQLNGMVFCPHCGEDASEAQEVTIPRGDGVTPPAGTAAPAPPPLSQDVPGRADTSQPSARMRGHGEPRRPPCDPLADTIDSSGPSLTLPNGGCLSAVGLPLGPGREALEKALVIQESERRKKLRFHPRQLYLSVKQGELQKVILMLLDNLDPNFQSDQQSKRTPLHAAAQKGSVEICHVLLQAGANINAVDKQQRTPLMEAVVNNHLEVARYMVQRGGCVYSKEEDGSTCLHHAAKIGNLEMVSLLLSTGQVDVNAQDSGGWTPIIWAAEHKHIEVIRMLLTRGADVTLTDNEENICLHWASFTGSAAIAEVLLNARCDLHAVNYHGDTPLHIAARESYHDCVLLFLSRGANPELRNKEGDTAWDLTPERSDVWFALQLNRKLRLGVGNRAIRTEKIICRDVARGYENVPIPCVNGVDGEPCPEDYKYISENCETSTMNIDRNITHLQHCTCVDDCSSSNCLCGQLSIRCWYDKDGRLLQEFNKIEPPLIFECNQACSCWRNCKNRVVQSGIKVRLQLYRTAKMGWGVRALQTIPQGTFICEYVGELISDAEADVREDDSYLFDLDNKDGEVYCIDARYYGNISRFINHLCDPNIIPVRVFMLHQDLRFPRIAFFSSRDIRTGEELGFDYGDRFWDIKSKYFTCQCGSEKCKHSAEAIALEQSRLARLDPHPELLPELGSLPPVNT
In short: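 Readings reflect AlphaScreen signal from monomethyl-H3K9 antibody detection. HMT at 20 nM; substrate b-H3K9 500 nM; cofactor SAM 20 uM; 2 h RT reaction; compounds tested as titrations in qHTS with 15 min preincubation.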
Further: nearly all actives have a fitted effect of over 75% in size.
On the % scale 0 is the no-effect control and ±100 the full control effect; potency means the concentration at half of the fitted maximal effect; tags describe the fitted curve by direction and shape.

Structure (SMILES)	Potency	activity, negative = inhibition
Cc1cccc(OC(=O)c2cncc(Br)c2)c1	inconclusive: 89.1 µM [inhibitor, partial curve, poor fit]	–
NC(=O)c1ccc[n+](CC(=O)c2ccc(F)cc2)c1	inconclusive: 50.1 µM [inhibitor, partial curve]	–
O=C(COC(=O)c1ccc(C(F)(F)F)cc1)NC(=O)NC1CCCC1	–	inactive: -10.5%
CC(NC(=O)c1ccccc1)C(=O)NC1=NCCS1 (stereo unspecified)	–	inactive: -12.2%
Cc1cccc(OCC(O)CN2CCN(S(=O)(=O)c3ccc(C)cc3C)CC2)c1 (stereo unspecified)	inconclusive: 8.91 µM [inhibitor, full curve]	–
O=C(CN1CCN(c2ccc(Cl)cc2)CC1)NCc1ccccc1	–	inactive: 3.36% [at 102 µM]
COc1ccccc1NS(=O)(=O)c1cc(NC(=O)C2=NNC(=O)CC2)ccc1C	inconclusive: 39.8 µM [inhibitor, single point]	–
C/C(=N\NC(=O)c1ccc(Br)o1)c1cc2c(cc1NC(=O)CCC(=O)O)OCO2	active: 3.16 µM	–
O=C(CCc1nc(-c2ccccc2F)no1)Nc1ccc(Oc2ccccc2)cc1	–	inactive: 41.6%
N#Cc1c2n(c(=S)n(-c3ccc(OC(F)F)cc3)c1=O)CCCCC2	–	inactive: -16.8%
Cn1c(NCCO)nc2c1c(=O)n(Cc1ccccc1Cl)c(=O)n2C	–	inactive: 3.12%
COc1ccc(CNS(=O)(=O)c2c(C)[nH]c(C)c2C(=O)N2CCCC2)cc1	–	inactive: 3.88% [at 102 µM]
Cc1ccc(Nc2nc(-c3cccs3)cs2)nc1	inconclusive: 44.7 µM [inhibitor, partial curve, poor fit]	–
COC(=O)[C@@]1(Cc2ccc(OC)cc2)[C@H]2c3cc(C(=O)N(C)C)n(C[C@H](O)CO)c3C[C@H]2CN1C(=O)c1ccccc1	inconclusive: 79.4 µM [inhibitor, single point]	–
O=C(NC(=S)Nc1ccccc1Br)c1ccco1	active: 44.7 µM	–
Cc1[nH]n(-c2ccccc2)c(=O)c1C(c1ccc(C(=O)O)cc1)c1c(C)[nH]n(-c2ccccc2)c1=O	–	inactive: -24.5%
O=C(c1ccc(-c2ccc([N+](=O)[O-])cc2)o1)N1CCCC(C(F)(F)F)C1 (stereo unspecified)	active: 14.1 µM	–
CC(Sc1nnc(-c2cc3ccccc3o2)n1-c1ccccc1)C(=O)O (stereo unspecified)	active: 8.91 µM	–
CCn1c(=O)n(CC)c2cc(N3CCCCC3)c(NC(=O)Nc3ccccc3Cl)cc21	inconclusive: 12.6 µM [inhibitor, partial curve]	–
CCN(CC(=O)Nc1ccccc1OC)C(=O)c1cc(-c2ccccc2)nn1-c1ccccc1	inconclusive: 50.1 µM [inhibitor, partial curve, poor fit]	–
Cc1c(C(=O)N(C)C)sc2c1c(=O)n(-c1ccc(Cl)c(Cl)c1)c(=O)n2CC(=O)Nc1cccc(C(F)(F)F)c1	–	inactive: 0.923%
Cc1nc2ccccc2nc(C)c1=NOCc1ccccc1Cl	–	inactive: 20.4% [at 102 µM]
CC1CCN(C2(O)C(=O)Nc3ccc(Cl)cc32)CC1 (stereo unspecified)	inconclusive: 89.1 µM [inhibitor, single point]	–
Cc1ccc(-c2n[nH]c(=S)n2/N=C/c2ccc(C)s2)cc1	–	inactive: 2.64% [at 0.501 µM]

Structure (SMILES)	Potency	activity, negative = inhibition
CCOC(=O)Cc1ccc(NC(=O)NCc2ccc3c(c2)CCN3C(=O)CC)cc1	–	inactive: 4.61%
O=C(c1ccncc1)N1CCC[C@@]2(CCN(Cc3ccccc3)C2)C1	–	inactive: 4.31% [at 12.7 µM]
COc1cccc(CNCc2ccc3c(c2)OCO3)c1	active: 22.4 µM	–
Cc1ccc(CNC(=O)c2cc(Cl)cc(Cl)c2)n1C	inconclusive: 79.4 µM [inhibitor, single point]	–
Cc1ccc(Nc2c(-c3ccco3)nc3nc(C)cc(C)n23)cc1	inconclusive: 4.47 µM [inhibitor, partial curve, poor fit]	–
O=C(COC(=O)c1cccnc1Cl)Nc1cccc(S(=O)(=O)N2CCCCC2)c1	inconclusive: 1.58 µM [inhibitor, full curve, poor fit]	–
CC(C)NCC(O)Cn1c2c(c3ccccc31)CCc1c-2cnn1-c1ccccc1 (stereo unspecified)	–	inconclusive: -60.6% [inhibitor]
CCCc1cc(C(N)=O)c(NC(=O)c2ccoc2C)s1	inconclusive: 3.16 µM [inhibitor, partial curve, poor fit]	–
O=C(CSc1ncn[nH]1)Nc1nc(-c2ccccc2)cs1	inconclusive: 39.8 µM [inhibitor, single point]	–
COc1ccc(Nc2nc(NCCCN3CCOCC3)nc(N)c2[N+](=O)[O-])cc1	inconclusive: 56.2 µM [inhibitor, partial curve, poor fit]	–
CCCS(=O)(=O)c1c(Nc2ccccc2C)sc(C(=O)c2ccccc2)c1N	inconclusive: 8.91 µM [inhibitor, partial curve, poor fit]	–
COc1ccc(OC)c(C(C(=O)NCc2ccco2)N(C(=O)Cn2nnc3ccccc32)C(C)C)c1 (stereo unspecified)	inconclusive: 0.708 µM [inhibitor, full curve, poor fit]	–
CCc1c(C)nc2cc(-c3cc(OC)cc(OC)c3)nn2c1N1CCCC1	–	inactive: 35%
O=C(CSc1nccn1-c1ccc(Cl)cc1)Nc1ccc2c(c1)OCO2	inconclusive: 12.6 µM [inhibitor, partial curve, poor fit]	–
O=C(CCn1nnc2ccccc2c1=O)N[C@@H](Cc1ccccc1)C(=O)O	inconclusive: 89.1 µM [inhibitor, single point]	–
COc1ccc(N2CCN(c3ncnc4sc(C(=O)NCC5CCCO5)c(C)c34)CC2)cc1 (stereo unspecified)	active: 39.8 µM	–
O=C(CCc1nnc2ccc(N3CCC4(CC3)OCCO4)nn12)NCc1ccccc1Cl	–	inactive: 6.8% [at 102 µM]
CC(=O)OCCCCCCCCCCC[N+]1(C)CCCCC1	active: 44.7 µM	–
CCc1ccc2c(c1)NC(c1cccs1)=NC(c1ccc(F)cc1)=N2	inconclusive: 10 µM [inhibitor, partial curve, poor fit]	–
O=C(O/N=C\c1ccc(N2CCOCC2)c([N+](=O)[O-])c1)c1ccc(F)cc1	inconclusive: 70.8 µM [inhibitor, single point]	–
O=C(N/N=C/c1ccc([N+](=O)[O-])o1)c1ccncc1	inconclusive: 50.1 µM [inhibitor, partial curve, poor fit]	–
CC(=O)N(Cc1cccnc1)c1nc2c(C)c(C)ccc2s1	inconclusive: 6.31 µM [inhibitor, single point]	–
Cc1cc(C)cc(NC(=O)CS(=O)(=O)c2cccc3nsnc23)c1	inconclusive: 89.1 µM [inhibitor, single point]	–
CCN1C(=O)/C(=C2/C=CC=CN2C)SC1=S	–	inconclusive: -69% [inhibitor]

Structure (SMILES)	Potency	activity, negative = inhibition
Cc1ccc(Nc2c(F)c(F)c(F)c(F)c2C(=O)O)cc1	inconclusive: 89.1 µM [inhibitor, partial curve, poor fit]	–
COc1ccc(C)cc1NC(=O)c1cnc2sccn2c1=O	inconclusive: 22.4 µM [inhibitor, partial curve, poor fit]	–
COc1ccc(-c2nc(SCC(=O)NCCc3ccc(OC)c(OC)c3)n[nH]2)cc1	–	inactive: 12.6%
Cc1c(NC(C)c2cc(Cl)ccc2O)c(=O)n(-c2ccccc2)n1C (stereo unspecified)	inconclusive: 89.1 µM [inhibitor, partial curve, poor fit]	–
COc1ccc(CN2CCc3ccccc3C2)c(OC)c1OC	active: 44.7 µM	–
CC(C)Cn1c(SC(C)C(=O)Nc2ccc(N3CCOCC3)cc2)nc2ccccc21 (stereo unspecified)	inconclusive: 25.1 µM [inhibitor, single point]	–
COc1ccc(N2C(=O)CC(Sc3nnc(-c4ccccc4)o3)C2=O)cc1 (stereo unspecified)	active: 10 µM	–
Cc1ccc(C(=O)OCCc2sc[n+](Cc3ccccc3)c2C)cc1	–	inactive: 4.76% [at 102 µM]
CC1CCCCC12NC(=O)N(CC(=O)N1CCc3ccccc3C1)C2=O (stereo unspecified)	inconclusive: 89.1 µM [inhibitor, single point]	–
CN(C)CCNC(=O)C(=O)C1C(=O)Nc2ccccc21 (stereo unspecified)	active: 31.6 µM	–
CC(=O)c1cccc(NC(=O)c2sc(-n3nc(C)c(Cc4ccc5c(c4)OCO5)c3C)nc2C)c1	–	inactive: -7.84%
OC(CNC1CCCc2ccccc21)COc1ccc2ccccc2c1 (stereo unspecified)	active: 10 µM	–
Cc1ccc2oc3c(c(=O)c2c1)C(c1ccc(F)cc1)N(Cc1ccc2c(c1)OCO2)C3=O (stereo unspecified)	–	inactive: -23.4%
CCOc1ccc(/C=C2\SC(=S)N(C(C(=O)O)c3ccccc3)C2=O)cc1OC (stereo unspecified)	inconclusive: 39.8 µM [inhibitor, partial curve]	–
N#CCC(=O)Nc1nc(-c2ccc3c(c2)OCCO3)cs1	–	inactive: -41.4% [at 102 µM]
COC(=O)C1=C(C)NC(C)=C(C(=O)OCCNCc2ccccc2)C1c1cccc([N+](=O)[O-])c1 (stereo unspecified)	inconclusive: 20 µM [inhibitor, single point]	–
c1ccc(CSc2ncnc3c2cnn3-c2ccccc2)cc1	inconclusive: 39.8 µM [inhibitor, single point]	–
COc1ccc(NS(=O)(=O)c2ccc(OC)c(N(C)S(=O)(=O)c3ccc(Cl)cc3)c2)cc1	active: 50.1 µM	–
COc1cc(C2CC(=O)c3c(O)cc(O)cc3O2)ccc1O (stereo unspecified)	–	inconclusive: -64.4% [inhibitor]
NC(=O)c1c(NC(=O)c2ccc(S(=O)(=O)N3CCOCC3)cc2)sc2c1CCCCC2	inconclusive: 79.4 µM [inhibitor, single point]	–
CCN(CC)C(=O)CSc1nc(-c2ccccc2F)nc2c1Cc1c(CO)cnc(C)c1O2	inconclusive: 31.6 µM [inhibitor, partial curve, poor fit]	–
CC1(C)CC(=O)C(/C=N/c2ncccc2C(=O)O)=C(O)C1	active: 50.1 µM	–
O=C(CN(C(=O)c1csnn1)c1cccc(Cl)c1)NCCc1ccccc1	–	inactive: 28.4% [at 102 µM]
